Results published in a collection of fitness landscapes (doi:10.1016/j.celrep.2020.107928).
Over roughly 81,000 sequences, “one-hybrid fitness for binding NBS DNA” has its median near -0.1; the highest 2% begin near 0.36. The list shows a part of the results.

B1: Caulobacter ParB omega fusion; a variant is named by its letters at X, in order, B8GW30 (parent)
chain: MESVVVGEPGMSEGRRGLGRGLSALLGEVDAAPAQAPGEQLGGSREAPIEILQRNPDQPRRTFREEDLEDLSNSIREKGVLQPILVRPSPDTAGEYQIVAGERAWRAAQRAGLKTVPIMVRELDDLAVLEIGIIENVQRADLNVLEEALSYKVLMEKFERTQENIAQTIGKSXSHVANXMRLLXLPDEVQSYLVSGELTAXHARAIAAAADPVALAKQIIEGGLSVRETEALARKAPNLSAGKSKGGRPPRVKDTDTQALESDLSSVLGLDVSIDHRGSTGTLTITYATLEQLDDLCNRLTRGI

Variants of: B1
Test: one-hybrid fitness for binding NBS DNA (the Noc-binding site; scaled: cognate 1, non-cognate 0); higher = stronger binding
Settings: with NBS DNA site
Procedure, shortened: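 Fitness is the rescaled log change in variant-to-wild-type read ratio, measured by Illumina sequencing of plasmids before and after bacterial one-hybrid selection. The scale puts cognate at 1 and non-cognate at 0. Selection of Caulobacter ParB libraries, four specificity codons randomised, took place in E. coli USO with a HIS3 reporter, site 19 bp from the promoter, over 48 hours at 37°C on M9-minus-histidine with 0.1 mM IPTG and 5 mM 3-AT.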

Row | Variant | one-hybrid fitness for binding NBS DNA
1 | AYQC | ≤ 0.2
2 | ITLV | ≤ 0.2
3 | QHQM | ≤ 0.2
4 | WFDG | ≤ 0.2
5 | RRDD | ≤ 0.2
6 | VTVC | ≤ 0.2
7 | KPHC | ≤ 0.2
8 | HRSW | ≤ 0.2
9 | WMIS | ≤ 0.2
10 | RVLI | ≤ 0.2
11 | SGMG | ≤ 0.2
12 | SAHS | ≤ 0.2
13 | GRTA | ≤ 0.2
14 | TDSL | ≤ 0.2
15 | KHSS | ≤ 0.2
16 | EDTE | ≤ 0.2
17 | YPPG | ≤ 0.2
18 | YHHG | ≤ 0.2
19 | LDKS | ≤ 0.2
20 | IDVL | ≤ 0.2
21 | CTVT | ≤ 0.2
22 | LPML | ≤ 0.2
23 | EHVR | ≤ 0.2
24 | QGTL | ≤ 0.2

Row | Variant | one-hybrid fitness for binding NBS DNA
25 | NMVT | ≤ 0.2
26 | KNKV | ≤ 0.2
27 | TPDC | ≤ 0.2
28 | WKKA | ≤ 0.2
29 | HHMF | ≤ 0.2
30 | WRSC | ≤ 0.2
31 | QNPQ | ≤ 0.2
32 | CTTC | ≤ 0.2
33 | NCIS | ≤ 0.2
34 | FQHT | ≤ 0.2
35 | TEVM | ≤ 0.2
36 | VPNS | ≤ 0.2
37 | PRHE | ≤ 0.2
38 | SWRD | ≤ 0.2
39 | NDPS | ≤ 0.2
40 | ETTD | ≤ 0.2
41 | TRDK | ≤ 0.2
42 | INDL | ≤ 0.2
43 | TRVT | ≤ 0.2
44 | LKTE | ≤ 0.2
45 | PYIH | ≤ 0.2
46 | MLRC | ≤ 0.2
47 | ADLS | ≤ 0.2
48 | HDLI | ≤ 0.2

Row | Variant | one-hybrid fitness for binding NBS DNA
49 | TIWT | ≤ 0.2
50 | WNHF | ≤ 0.2
51 | HRSQ | ≤ 0.2
52 | FTKM | ≤ 0.2
53 | RMPP | ≤ 0.2
54 | QAFL | ≤ 0.2
55 | VSRD | ≤ 0.2
56 | QKCA | ≤ 0.2
57 | APEG | ≤ 0.2
58 | WTER | ≤ 0.2
59 | QFTL | ≤ 0.2
60 | VFNC | ≤ 0.2
61 | RGDY | ≤ 0.2
62 | ACLN | ≤ 0.2
63 | PFGT | ≤ 0.2
64 | LCLW | ≤ 0.2
65 | RVFY | ≤ 0.2
66 | FMTG | ≤ 0.2
67 | WLEL | ≤ 0.2
68 | RVIT | 0.222
69 | AAPD | ≤ 0.2
70 | LCRP | ≤ 0.2
71 | GWKC | ≤ 0.2
72 | ALTR | ≤ 0.2

Row | Variant | one-hybrid fitness for binding NBS DNA
73 | DDCG | ≤ 0.2
74 | VAMS | ≤ 0.2
75 | SIGC | ≤ 0.2
76 | WNSS | ≤ 0.2
77 | LVNL | ≤ 0.2
78 | QVGH | ≤ 0.2
79 | RHNV | ≤ 0.2
80 | GTCT | ≤ 0.2
81 | CRAI | ≤ 0.2
82 | DLYG | ≤ 0.2
83 | GVMS | ≤ 0.2
84 | TLCY | ≤ 0.2
85 | NSCT | ≤ 0.2
86 | ANLE | ≤ 0.2
87 | THPP | ≤ 0.2
88 | HRTY | ≤ 0.2
89 | PFMC | ≤ 0.2
90 | GAAE | ≤ 0.2
91 | GKGN | ≤ 0.2
92 | LGLP | ≤ 0.2
93 | KCPC | ≤ 0.2
94 | GRGS | ≤ 0.2
95 | FKLF | ≤ 0.2
96 | HPVN | ≤ 0.2

Row | Variant | one-hybrid fitness for binding NBS DNA
97 | QCMF | ≤ 0.2
98 | CEHG | ≤ 0.2
99 | LTSR | ≤ 0.2
100 | FRPN | ≤ 0.2
101 | KTAV | ≤ 0.2
102 | PCKA | ≤ 0.2
103 | QQDE | ≤ 0.2
104 | ITMG | ≤ 0.2
105 | IGVG | ≤ 0.2
106 | SYRA | ≤ 0.2
107 | ASNW | ≤ 0.2
108 | RQED | ≤ 0.2
109 | PDPF | ≤ 0.2
110 | LIQM | ≤ 0.2
111 | RWAI | ≤ 0.2
112 | SISR | ≤ 0.2
113 | RLIK | ≤ 0.2
114 | VSIE | ≤ 0.2
115 | DYNA | ≤ 0.2
116 | NTNT | ≤ 0.2
117 | TRTF | ≤ 0.2
118 | RFCY | ≤ 0.2
119 | MQLR | ≤ 0.2
120 | SYRF | ≤ 0.2

Row | Variant | one-hybrid fitness for binding NBS DNA
121 | HQTC | ≤ 0.2
122 | EKLC | ≤ 0.2
123 | MSPS | ≤ 0.2
124 | YTLR | ≤ 0.2
125 | AQSF | ≤ 0.2
126 | LYCN | ≤ 0.2
127 | VRTV | ≤ 0.2
128 | MPMS | ≤ 0.2
129 | LRPV | ≤ 0.2
130 | DLKG | ≤ 0.2
131 | DLDG | ≤ 0.2
132 | NGAM | ≤ 0.2
133 | PLCG | ≤ 0.2
134 | EESF | ≤ 0.2
135 | PWHR | ≤ 0.2
136 | QADR | 0.314
137 | VSFT | ≤ 0.2
138 | QQNY | 0.306
139 | SILF | ≤ 0.2
140 | CMQA | ≤ 0.2
141 | KTTF | ≤ 0.2
142 | RFGC | ≤ 0.2
143 | KFTN | ≤ 0.2
144 | TQRF | ≤ 0.2

Row | Variant | one-hybrid fitness for binding NBS DNA
145 | RGNF | ≤ 0.2
146 | VYKY | ≤ 0.2
147 | KIQS | ≤ 0.2
148 | LRFW | ≤ 0.2
149 | IRFT | ≤ 0.2
150 | HVMG | ≤ 0.2
151 | AHLG | ≤ 0.2
152 | RKQV | ≤ 0.2
153 | LRRY | ≤ 0.2
154 | PFHR | ≤ 0.2
155 | FLST | ≤ 0.2
156 | MTLG | ≤ 0.2
157 | HVVL | ≤ 0.2
158 | QTMC | ≤ 0.2
159 | NATI | ≤ 0.2
160 | HNQW | ≤ 0.2
161 | TPFA | ≤ 0.2
162 | RRCK | 0.254
163 | FGVS | ≤ 0.2
164 | KYEG | ≤ 0.2
165 | SQAG | ≤ 0.2
166 | HDTE | ≤ 0.2
167 | TTRN | ≤ 0.2
168 | NGTS | ≤ 0.2

Row | Variant | one-hybrid fitness for binding NBS DNA
169 | RFVT | ≤ 0.2
170 | SSQF | ≤ 0.2
171 | RGRT | ≤ 0.2
172 | SEIS | ≤ 0.2
173 | HLAG | ≤ 0.2
174 | DLVC | ≤ 0.2
175 | NRAT | ≤ 0.2
176 | SVDL | ≤ 0.2
177 | VVPK | ≤ 0.2
178 | LSMF | ≤ 0.2
179 | NKVD | ≤ 0.2
180 | LAMG | ≤ 0.2
181 | ESFC | ≤ 0.2
182 | CWRY | ≤ 0.2
183 | AKRG | ≤ 0.2
184 | PNYY | ≤ 0.2
185 | KMVN | ≤ 0.2
186 | NHVG | ≤ 0.2
187 | EKAT | ≤ 0.2
188 | VNSL | ≤ 0.2
189 | QSIY | ≤ 0.2
190 | WPCT | ≤ 0.2
191 | HQDG | ≤ 0.2
192 | HHVL | ≤ 0.2

Row | Variant | one-hybrid fitness for binding NBS DNA
193 | QAMI | ≤ 0.2
194 | SASC | ≤ 0.2
195 | PVWG | ≤ 0.2
196 | DTLE | ≤ 0.2
197 | RSEW | ≤ 0.2
198 | PPIK | ≤ 0.2
199 | DRMT | ≤ 0.2
200 | PDFD | ≤ 0.2
201 | HFID | ≤ 0.2
202 | IYLG | ≤ 0.2
203 | RPKG | ≤ 0.2
204 | CFAL | ≤ 0.2
205 | MNPV | ≤ 0.2
206 | RKQC | 0.22
207 | QITH | ≤ 0.2
208 | TWRT | ≤ 0.2
209 | QRIW | ≤ 0.2
210 | TWPM | ≤ 0.2
211 | YDSP | ≤ 0.2
212 | YLCG | ≤ 0.2
213 | RYGF | ≤ 0.2
214 | QSCQ | ≤ 0.2
215 | PINI | ≤ 0.2
216 | QFNR | 0.268

Row | Variant | one-hybrid fitness for binding NBS DNA
217 | GIDC | ≤ 0.2
218 | PRYP | ≤ 0.2
219 | SEYR | ≤ 0.2
220 | SVDD | ≤ 0.2
221 | PAWR | ≤ 0.2
222 | AKQI | ≤ 0.2
223 | RMVK | ≤ 0.2
224 | CCRC | ≤ 0.2
225 | ILTQ | ≤ 0.2
226 | SHVC | ≤ 0.2
227 | QQKM | 0.476
228 | TLEH | ≤ 0.2
229 | LPNA | ≤ 0.2
230 | HRCT | ≤ 0.2
231 | IEWG | ≤ 0.2
232 | CKIR | ≤ 0.2
233 | SCVT | ≤ 0.2
234 | LCKD | ≤ 0.2
235 | VPVA | ≤ 0.2
236 | TNGL | ≤ 0.2
237 | KTEL | ≤ 0.2
238 | TSAW | ≤ 0.2
239 | AKTR | ≤ 0.2
240 | MARE | ≤ 0.2

Row | Variant | one-hybrid fitness for binding NBS DNA
241 | TPVT | 0.375
242 | PWRV | ≤ 0.2
243 | TGIT | ≤ 0.2
244 | TMRT | ≤ 0.2
245 | KVAS | ≤ 0.2
246 | RHFA | ≤ 0.2
247 | LYTG | ≤ 0.2
248 | RMVA | ≤ 0.2
249 | TANY | ≤ 0.2
250 | RRDA | 0.463
251 | PFTA | ≤ 0.2
252 | VTAT | ≤ 0.2
253 | RGFR | ≤ 0.2
254 | SGEV | ≤ 0.2
255 | IDHS | ≤ 0.2
256 | SHLV | ≤ 0.2
257 | TTAF | ≤ 0.2
258 | NMRC | ≤ 0.2
259 | NLMY | ≤ 0.2
260 | RWMF | ≤ 0.2
261 | EVKY | ≤ 0.2
262 | RFHV | ≤ 0.2
263 | RDKG | ≤ 0.2
264 | YPPC | ≤ 0.2

Row | Variant | one-hybrid fitness for binding NBS DNA
265 | LACR | ≤ 0.2
266 | ARGD | ≤ 0.2
267 | SCVC | ≤ 0.2
268 | DIHS | ≤ 0.2
269 | DGTG | ≤ 0.2
270 | WQTS | ≤ 0.2
271 | FTAT | ≤ 0.2
272 | RYHC | ≤ 0.2
273 | FLWA | ≤ 0.2
274 | NPPW | ≤ 0.2
275 | KPPQ | ≤ 0.2
276 | CSTR | ≤ 0.2
277 | AKET | ≤ 0.2
278 | EPGH | ≤ 0.2
279 | QMLN | ≤ 0.2
280 | EVRC | ≤ 0.2
281 | RMKL | ≤ 0.2
282 | RIWW | ≤ 0.2
283 | QEIS | ≤ 0.2
284 | PEAT | ≤ 0.2
285 | EPQS | ≤ 0.2
286 | WSMI | ≤ 0.2
287 | QITY | ≤ 0.2
288 | RREC | 0.316

Row | Variant | one-hybrid fitness for binding NBS DNA
289 | AKKF | ≤ 0.2
290 | TNAL | ≤ 0.2
291 | HIRQ | ≤ 0.2
292 | QYRK | 0.36
293 | SVQI | ≤ 0.2
294 | WWPS | ≤ 0.2
295 | RKVL | ≤ 0.2
296 | IMMR | ≤ 0.2
297 | IPMS | ≤ 0.2
298 | RKGS | 0.576
299 | LNHM | ≤ 0.2
300 | GHMR | ≤ 0.2
301 | DCWG | ≤ 0.2
302 | YTAH | ≤ 0.2
303 | EEAT | ≤ 0.2
304 | MARH | ≤ 0.2
305 | STTM | ≤ 0.2
306 | ERSE | ≤ 0.2
